Measurements: patent US20230213525A1, “DETECTING MICROBIAL INFECTION IN WOUNDS” (QUALIZYME DIAGNOSTICS GMBH & CO KG, priority 2016, published 2023)
Like-named read-outs stand apart in the source and are kept apart here.

Target: T1, Cathepsin (Homo sapiens, UniProt P08311)
T1 sequence (P08311 21-244): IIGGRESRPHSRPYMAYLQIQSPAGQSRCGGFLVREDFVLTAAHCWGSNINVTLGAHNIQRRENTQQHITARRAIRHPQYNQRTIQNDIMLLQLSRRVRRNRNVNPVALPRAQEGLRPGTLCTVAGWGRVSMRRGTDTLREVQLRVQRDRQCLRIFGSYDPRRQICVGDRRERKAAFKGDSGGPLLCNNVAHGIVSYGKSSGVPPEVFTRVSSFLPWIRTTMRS
Conditions: 5 µL, 3.0 mM substrate, 20 to 30 minutes

N-succinyl-ala-ala-pro-phe-p-nitroanilide
Test response (infected sputum samples A, B, C): yellow
Test response (non infected sputum samples D, E, F): No colour change
